Cytotoxicity call data for 40 compounds are collected here from the antibiotic and cytotoxicity screens of Wong et al. (2023).

The list shows a part of the results.

The test system of the assay is HepG2. The assay can be described thus: cytotoxicity call (relative viability < 0.9). As to conditions: 10 µM.
For `CO[C@H]1O[C@H](CO)[C@@H](OC(=O)c2ccc(Br)cc2)[C@@H]2OC(=O)[C@H](Cc3cccc(Br)c3)C/C=C/C[C@@H](Cc3cccc(Br)c3)C(=O)O[C@@H]12`, the cytotoxicity call is “inactive”.

Consider `CCOC(=O)c1c(C)cc(OC)cc1O`, for which the cytotoxicity call is “active”.

Take `COc1cccc(OC)c1C(=O)O[C@H]1[C@@H]2OC(=O)[C@H](Cc3cccc(Br)c3)C/C=C/C[C@@H](Cc3cccc(Br)c3)C(=O)O[C@H]2[C@@H](OC)O[C@@H]1CO`: the cytotoxicity call was “inactive”.

For `C[C@H]1CN([C@@H](C)CO)C(=O)c2cccc(NS(=O)(=O)c3ccccc3)c2O[C@@H]1CN(C)S(=O)(=O)c1cccs1`, the cytotoxicity call was “inactive”.

Take `C[C@@H]1CCCCO[C@H](CN(C)C(=O)c2ccccc2)[C@H](C)CN([C@@H](C)CO)C(=O)c2cc(NC(=O)NC3CCCCC3)ccc2O1`: the cytotoxicity call is “inactive”.

As for `C[C@@H]1O[C@@H](O[C@H]2[C@H](OC(=O)[C@]34CCC(C)(C)C[C@H]3C3=CC[C@H]5[C@@]6(C)CC[C@H](O[C@@H]7O[C@H](CO)[C@@H](O)[C@H](O)[C@H]7O)C(C)(C)[C@@H]6CC[C@@]5(C)[C@]3(C)C[C@H]4O)OC[C@H](O)[C@@H]2O)[C@H](O)[C@H](O[C@@H]2OC[C@H](O)[C@H](O)[C@H]2O)[C@H]1O[C@@H]1OC[C@@H](O)[C@H](O[C@@H]2OC[C@H](O)[C@H](O)[C@H]2O)[C@H]1O`, the cytotoxicity call is “active”.

On to `COc1ccc2c3c(n(c2c1)C)[C@H](CO)N(C[C@]13CCN(CC1)CC1CCOCC1)C(=O)Cc1ccccn1`, for which the cytotoxicity call is “inactive”.

`C[C@@H]1CCCCO[C@@H](CN(C)Cc2ccc(C(F)(F)F)cc2)[C@@H](C)CN([C@@H](C)CO)C(=O)c2cc(NS(=O)(=O)c3ccccc3)ccc2O1`: the cytotoxicity call was “active”.

Take `CCOC(=O)CCCCCC(=O)Nc1ccc2c(c1)C(=O)N([C@H](C)CO)C[C@@H](C)[C@@H](CN(C)S(=O)(=O)c1ccc(C)cc1)OCCCC[C@H](C)O2`: the cytotoxicity call was “inactive”.

Regarding `CCCCCC1C(=O)CCC1CC(=O)OC` (stereo not given), the cytotoxicity call is “inactive”.

As to `O=C(C[C@H]1CC[C@@H]2[C@H](COC[C@@H](O)CN2C(=O)Nc2cccc(F)c2)O1)NCCCN1CCOCC1`, the cytotoxicity call is “inactive”.

In the case of `C[C@@H]1CN([C@@H](C)CO)C(=O)c2cc(NC(=O)Nc3cccc4ccccc34)ccc2O[C@@H]1CN(C)Cc1ccc(Cl)c(Cl)c1`, the cytotoxicity call is “inactive”.

On to `C[C@@H]1CN([C@@H](C)CO)C(=O)c2cccc(NS(=O)(=O)c3cn(C)cn3)c2O[C@@H]1CN(C)S(=O)(=O)c1ccccc1`, for which the cytotoxicity call was “inactive”.

On to `C[C@H](CO)N1C[C@H](C)[C@H](CN(C)C(=O)Nc2ccc(F)cc2)Oc2ccc(NC(=O)CCCN(C)C)cc2C1=O`, for which the cytotoxicity call was “inactive”.

For `C[C@H]1CN([C@@H](C)CO)C(=O)CCCn2nncc2CO[C@@H]1CN(C)C(=O)Nc1cccc(C(F)(F)F)c1`, the cytotoxicity call is “inactive”.

In the case of `C[C@@H]1CCCCO[C@@H](CN(C)C(=O)c2ccncc2)[C@H](C)CN([C@@H](C)CO)C(=O)c2cc(NS(=O)(=O)c3cn(C)cn3)ccc2O1`, the cytotoxicity call is “inactive”.

Regarding `O=C(CN1CCS(=O)(=O)CC1)NS(=O)(=O)c1ccccc1`, the cytotoxicity call was “inactive”.

On to `C[C@@H]1CCCCO[C@H](CN(C)Cc2ccncc2)[C@H](C)CN([C@@H](C)CO)C(=O)c2cc(NC(=O)Nc3ccc(C(F)(F)F)cc3)ccc2O1`, for which the cytotoxicity call was “active”.

For `COC(=O)[C@@]12OC[C@]34[C@H]([C@@H](O)[C@@H]1O)[C@@]1(C)CC(=O)C(=O)[C@H](C)[C@@H]1C[C@H]3OC(=O)[C@H](OC(=O)/C=C(\C)C(C)C)[C@@H]24`, the cytotoxicity call was “active”.

In the case of `O=C(C[C@H]1CC[C@@H](NC(=O)c2cccnc2)[C@H](CO)O1)NCCN1CCCCC1`, the cytotoxicity call is “inactive”.

Turning to `Cc1noc(C)c1NC(=O)Nc1ccc2c(c1)C(=O)N([C@H](C)CO)C[C@@H](C)[C@H](CN(C)Cc1ccc(-c3ccccc3)cc1)O2`, the cytotoxicity call was “inactive”.

`N[C@H]1CC[C@H](CCn2cc(-c3ccccn3)nn2)O[C@@H]1CO`: the cytotoxicity call is “inactive”.

Turning to `Nc1nc(=O)c2c(CCc3ccc(C(=O)NC(CCC(=O)[O-])C(=O)[O-])cc3)c[nH]c2[nH]1.[Na+].[Na+]` (stereo not given), the cytotoxicity call is “inactive”.

For `Cn1c(=O)c2c(ncn2CCCCn2cnc3c2c(=O)n(C)c(=O)n3C)n(C)c1=O`, the cytotoxicity call is “inactive”.

As to `C[C@H]1CN([C@@H](C)CO)S(=O)(=O)c2ccc(C3=CCCCC3)cc2O[C@H]1CN(C)Cc1cncnc1`, the cytotoxicity call is “inactive”.

`Cc1cc(C(=O)Nc2cccc3c2O[C@H](CN(C)S(=O)(=O)c2cn(C)cn2)[C@@H](C)CN([C@@H](C)CO)C3=O)n(C)n1`: the cytotoxicity call is “inactive”.

Regarding `C[C@@H]1CCCCO[C@H](CN(C)S(=O)(=O)c2ccc(Cl)cc2)[C@H](C)CN([C@H](C)CO)C(=O)c2cc(NC(=O)NC3CCCCC3)ccc2O1`, the cytotoxicity call was “active”.

Consider `Cc1noc(C)c1NC(=O)N(C)C[C@@H]1Oc2c(NC(=O)Nc3ccc(C(F)(F)F)cc3)cccc2C(=O)N([C@H](C)CO)C[C@@H]1C`, for which the cytotoxicity call was “inactive”.

Regarding `C[C@H]1CN([C@@H](C)CO)C(=O)c2cc(NC(=O)Nc3cccc4ccccc34)ccc2O[C@@H]1CN(C)C(=O)Nc1ccc(F)cc1`, the cytotoxicity call was “inactive”.

In the case of `C[C@@H]1CN([C@@H](C)CO)C(=O)Cc2cc(NS(=O)(=O)c3cn(C)cn3)ccc2O[C@@H]1CN(C)C(=O)Nc1ccc2c(c1)OCO2`, the cytotoxicity call is “inactive”.

Take `Cn1cnc(CCNC(=O)C[C@@H]2CC[C@H]3[C@@H](COC[C@@H](O)CN3C(=O)C3CC3)O2)c1`: the cytotoxicity call is “inactive”.

On to `CC(C)NC(=O)N(C)C[C@H]1Oc2ccc(NC(=O)Cc3ccccc3)cc2C(=O)N([C@@H](C)CO)C[C@@H]1C`, for which the cytotoxicity call is “inactive”.

Take `CC(C)NC(=O)N(C)C[C@@H]1Oc2ccc(NS(=O)(=O)c3ccccc3)cc2CC(=O)N([C@H](C)CO)C[C@H]1C`: the cytotoxicity call is “inactive”.

For `COc1ccc(S(=O)(=O)N(C)C[C@H]2Oc3c(NS(=O)(=O)c4cccs4)cccc3C(=O)N([C@H](C)CO)C[C@@H]2C)cc1`, the cytotoxicity call is “inactive”.

With `CN(C)CCN1C[C@@H]2CN(C(=O)[C@H]3CCOC3)C[C@H]2C1=O`, the cytotoxicity call is “inactive”.

Consider `COc1ccc(-c2cnc3c(c2)C(=O)N([C@H](C)CO)C[C@H](C)[C@H](CN(C)S(=O)(=O)c2cn(C)cn2)O3)cc1`, for which the cytotoxicity call is “inactive”.

`NC[C@H](c1ccccc1)N1CCOCC1`: the cytotoxicity call is “inactive”.

As to `C[C@@H]1CN([C@@H](C)CO)S(=O)(=O)c2ccc(C#CC3(O)CCCC3)cc2O[C@@H]1CN(C)C(=O)Cc1cccnc1`, the cytotoxicity call was “inactive”.

As to `C[C@H]1CN([C@@H](C)CO)C(=O)c2cccc(NS(C)(=O)=O)c2O[C@H]1CN(C)C(=O)Nc1ccc(F)cc1`, the cytotoxicity call was “inactive”.

For `C[C@@H]1CCCCO[C@@H](CN(C)Cc2ccc(C(=O)O)cc2)[C@H](C)CN([C@@H](C)CO)C(=O)c2cc(NC(=O)NC3CCCCC3)ccc2O1`, the cytotoxicity call was “inactive”.
